Measurements reported in article PMC10668032.
Some of the results follow. At the low end of the ranking the order means little.

target: SIX1 homeodomain (reference allele) (UniProt Q15475); experiment: universal protein binding microarray; details: Universal all-10-mer PBM (8x60K, AMADID 030236), 300 nM GST-tagged protein, Alexa Fluor 488 anti-GST; buffer, salt, pH and temperature not stated; high values mean tight binding; most listed sequences are background and not binding sites; double strand, one strand shown

Sequence | binding signal
ACCATGAA | -0.0204 E-score
GGTTCCAA | 0.0565 E-score
CAATCAGC | -0.146 E-score
AACCCCAC | 0.122 E-score
CCGGACGA | 0.221 E-score
TCAAACGA | 0.11 E-score
GGGTGAAC | -0.0592 E-score
CGATCCCC | 0.437 E-score
AAGCATTG | -0.214 E-score
AAGGTCCA | -0.145 E-score
CTTGTCCC | -0.206 E-score
GAGCTGAA | -0.18 E-score
AACGGCGG | -0.0734 E-score
GCGTCGCA | -0.0258 E-score
CCTCACAA | 0.0691 E-score
ATGCGCGG | -0.0787 E-score
AATCTTTC | -0.258 E-score
CCAAACGA | -0.0944 E-score
AGTACTCA | -0.0613 E-score
CAGACGAG | -0.0269 E-score
GAACTTCC | -0.347 E-score
AAGTATGG | -0.0682 E-score
ATGACCGA | 0.0546 E-score
CGTCGCTC | -0.0861 E-score

Sequence | binding signal
ATTGGGTA | 0.0711 E-score
GTACCACA | -0.172 E-score
AAGACCTG | -0.0683 E-score
AAGCAGCT | -0.318 E-score
CTCTTCTA | 0.0433 E-score
ACCTAAGG | -0.0621 E-score
ACCGAAGC | -0.272 E-score
GCCCGACA | -0.108 E-score
CCGTGAAA | -0.133 E-score
ACTGTTTC | -0.236 E-score
CATTGTCA | -0.142 E-score
GAATGGGC | -0.191 E-score
AGAAGACG | -0.0107 E-score
ACAAATTC | 0.0756 E-score
AATGGAGT | -0.223 E-score
ATTCCGAG | 0.0467 E-score
ATAGTAGC | 0.187 E-score
GACCGCCA | -0.18 E-score
ATGAACAT | -0.0549 E-score
CCAAAATA | 0.033 E-score
TACATACA | 0.181 E-score
CTGCGGTA | 0.0424 E-score
CTAGAAAA | -0.155 E-score
CTCATAGA | 0.0368 E-score

Sequence | binding signal
CTCACTGA | -0.0546 E-score
CACTGGTC | -0.0959 E-score
ACTAGTGC | -0.247 E-score
GCATGCTA | 0.00441 E-score
AAAGACAA | -0.193 E-score
GGCATCAC | 0.0526 E-score
GACACGAA | -0.116 E-score
AGAACTTG | -0.217 E-score
AGCATGTA | -0.0593 E-score
ATCTGGTG | 0.266 E-score
ACCTATGA | 0.075 E-score
CAGTTCCG | -0.0941 E-score
CGTCAGGA | -0.0375 E-score
CAGGCAAA | -0.156 E-score
CTGCCCGA | -0.00468 E-score
GTCTATAA | 0.0805 E-score
CTAGATTA | 0.0323 E-score
ACCCCGCG | 0.264 E-score
AAGCGCTC | -0.0755 E-score
CATCGTGA | 0.0525 E-score
AGATGTAG | 0.0572 E-score
AACGCATA | 0.203 E-score
ACTCCCCC | -0.086 E-score
AGCTGTAA | -0.26 E-score

Sequence | binding signal
TTGGAAAA | -0.0998 E-score
GACCAGAC | -0.312 E-score
AAATGTCG | -0.205 E-score
AACTTGTG | 0.0298 E-score
AATAACCA | -0.121 E-score
TAAGACGA | 0.0197 E-score
CGAGGTGC | -0.0819 E-score
GGGTACTA | 0.126 E-score
GTGTCTGA | 0.0497 E-score
CCTGGATA | 0.313 E-score
CGCGTCTA | 0.0662 E-score
AGCTTTGG | -0.137 E-score
GCGCATCA | -0.0358 E-score
CCGTGCGC | -0.0181 E-score
CAGAGCCC | -0.094 E-score
ATATTCAC | 0.138 E-score
CCCCGCCC | 0.244 E-score
CCCACTGC | -0.0736 E-score
CCCAACCG | -0.132 E-score
CCAGTTTC | -0.0118 E-score
TAGCGCGA | -0.0508 E-score
GGAGTGAA | -0.0345 E-score
TCCTGGAA | -0.188 E-score
ACCTCTCA | 0.0493 E-score

Sequence | binding signal
CGACTTAA | -0.186 E-score
CACCGACA | 0.172 E-score
TGAGATAA | 0.0863 E-score
AATCGTAA | -0.0056 E-score
GGGTCAGA | -0.0498 E-score
CCAACTAC | 0.0733 E-score
AGATACAT | 0.329 E-score
CCCACCTC | -0.0533 E-score
ATTGGTTA | -0.0152 E-score
CCCCACAC | 0.0515 E-score
ATCCGATC | 0.43 E-score
CATCTTAG | 0.0299 E-score
CACCCGCC | 0.215 E-score
CCGGCTTC | 0.0646 E-score
ACCCGCGA | 0.116 E-score
ATACGTGC | 0.358 E-score
CCGAATCC | 0.163 E-score
AGCACGGG | -0.251 E-score
GGCGTTCA | -0.0936 E-score
CCGTCTGA | 0.11 E-score
CGCCATGC | -0.135 E-score
AAAATGCT | -0.17 E-score
AGTGAACA | -0.12 E-score
AGCATAAG | -0.172 E-score

Sequence | binding signal
AGAGGTCA | -0.241 E-score
AACACAGC | -0.123 E-score
GATGTTAC | -0.178 E-score
ATCGAACG | -0.0566 E-score
ACATAGCG | -0.135 E-score
TAACGACA | -0.157 E-score
CACCAACC | -0.0297 E-score
GACGAGGC | -0.066 E-score
CGTGTATC | 0.404 E-score
CGATCCTC | 0.333 E-score
CACCTATA | 0.0576 E-score
CCCCATAA | 0.0718 E-score
AACTCGTG | -0.168 E-score
AGTATGAT | 0.282 E-score
AGTGTCAT | 0.272 E-score
TATAGGAA | 0.0688 E-score
AGAAGACT | -0.195 E-score
AAGAGTCC | -0.375 E-score
GGTTCCAC | -0.244 E-score
GATATAGA | 0.318 E-score
CTTCTGTC | -0.0769 E-score
TCATGCAA | 0.0584 E-score
AGGCTTCG | -0.132 E-score
ATTACAAG | -0.117 E-score
